# Among all 310,000 compounds or so, about 14,000 (4.5%) showed an effect of 50% or more. Effects have a minus sign here. Some of the results follow.
# Target: human ether-à-go-go-related gene (hERG) potassium channel (human, UniProt Q12809)
# Assay: primary screen, population patch clamp on CHO cells stably expressing hERG
# 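Further: peak tail current of the secondary pulse compared with the same well before compound.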
# human ether-à-go-go-related gene (hERG) potassium channel, sequence (Q12809 whole entry, looked up): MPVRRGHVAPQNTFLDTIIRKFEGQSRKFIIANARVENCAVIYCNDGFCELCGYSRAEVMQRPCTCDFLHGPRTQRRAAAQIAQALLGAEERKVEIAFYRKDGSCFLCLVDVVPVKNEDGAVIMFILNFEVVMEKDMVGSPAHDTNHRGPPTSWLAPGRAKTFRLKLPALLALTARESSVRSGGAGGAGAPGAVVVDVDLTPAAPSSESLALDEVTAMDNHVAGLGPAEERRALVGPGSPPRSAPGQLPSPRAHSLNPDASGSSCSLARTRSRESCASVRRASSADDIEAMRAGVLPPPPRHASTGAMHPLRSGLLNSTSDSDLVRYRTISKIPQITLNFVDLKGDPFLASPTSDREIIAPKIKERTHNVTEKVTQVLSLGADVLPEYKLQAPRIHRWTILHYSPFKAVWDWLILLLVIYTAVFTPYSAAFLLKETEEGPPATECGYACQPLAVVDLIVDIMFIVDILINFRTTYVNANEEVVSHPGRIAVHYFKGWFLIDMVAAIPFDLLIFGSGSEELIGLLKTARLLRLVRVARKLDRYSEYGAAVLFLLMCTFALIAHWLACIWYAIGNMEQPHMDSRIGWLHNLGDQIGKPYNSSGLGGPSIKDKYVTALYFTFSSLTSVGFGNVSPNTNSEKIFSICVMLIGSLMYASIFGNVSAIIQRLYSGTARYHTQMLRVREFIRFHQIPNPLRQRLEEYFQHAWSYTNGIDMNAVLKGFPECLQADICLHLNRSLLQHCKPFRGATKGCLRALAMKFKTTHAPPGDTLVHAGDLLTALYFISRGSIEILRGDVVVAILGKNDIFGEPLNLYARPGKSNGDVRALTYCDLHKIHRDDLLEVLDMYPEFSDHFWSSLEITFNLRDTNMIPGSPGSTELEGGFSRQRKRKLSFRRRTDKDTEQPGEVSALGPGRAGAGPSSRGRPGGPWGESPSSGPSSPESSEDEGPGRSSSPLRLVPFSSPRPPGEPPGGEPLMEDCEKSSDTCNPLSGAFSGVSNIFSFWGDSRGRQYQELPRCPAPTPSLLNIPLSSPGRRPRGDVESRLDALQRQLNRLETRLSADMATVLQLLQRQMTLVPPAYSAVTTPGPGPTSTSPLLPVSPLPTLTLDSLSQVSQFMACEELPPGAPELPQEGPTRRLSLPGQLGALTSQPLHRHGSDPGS
row,SMILES,"hERG current change (%, negative = inhibition) at 10uM [%]"
1,CCOC(=O)[C@H]1[C@H]2COc3ccc(Br)cc3[C@@H]2N2C(=O)CN(Cc3ccc(C)cc3)C(=O)[C@@]12C,5.47
2,C[C@@]12CCC3[C@@](CCC4[C@@]3(C)CCC[C@@]4(C)C(=O)O)(CC1=O)C2 (stereo partly drawn),7.87
3,COC(CNS(=O)(=O)c1cc2c3c(c1)CCN3C(=O)CC2)OC,28.5
4,COc1ccccc1CC(=O)Nc1ccc2c(c1)C(=O)NC2=O,1.9
5,CCOC(=O)C1CCN(C(=O)CN(c2ccc3c(c2)OCCO3)S(C)(=O)=O)CC1,-4.03
6,Cc1ccc(N/C(N)=N/c2nc(CSc3nnc(C)s3)cc(=O)[nH]2)c(C)c1,-8.86
7,CCN(CC(=O)Nc1ccccc1OC)C(=O)CSCC(=O)Nc1ccc(OC)cc1,0.652
8,COC(=O)c1ccc(C2c3[nH]c4ccccc4c3C[C@H]3C(=O)N(C4CC4)CC(=O)N23)cc1 (stereo partly drawn),-21.3
9,Cc1cccc(CN2CCN(C(=O)CCc3nnc(C4CCCCC4)o3)CC2)c1,-14.9
10,CCOC(=O)C(NC(=O)c1ccc(OC)cc1)(Nc1cc(C)on1)C(F)(F)F (stereo not drawn),-1.92
11,Cn1cc(S(=O)(=O)N2CCN(c3ccccc3F)CC2)c(=O)n(C)c1=O,23.3
12,CCC(C(=O)NCc1ccccc1OC)n1nc(C)n2c(cc3occc32)c1=O (stereo not drawn),-6.27
13,COC(=O)C1=C(C)NC(C)=C(C(=O)OCC2CCCO2)C1c1cccc(Cl)c1 (stereo not drawn),2.87
14,Cc1nn(-c2ccccc2)c(N)c1C1(O)C(=O)Nc2ccccc21 (stereo not drawn),-4.95
15,Cc1cccc(-n2nnnc2SCC(=O)NCC2CCCO2)c1 (stereo not drawn),-1.36
16,Cc1ccccc1Cn1nc(C)c(NC(=O)c2ccccc2)c1C,7.59
17,O=C(NCCc1ccc(F)cc1)c1cc2ccccc2oc1=O,6.16
18,COc1ccc(NC(=O)CN(C)C(=O)c2ccc(N3CCCCCC3)c([N+](=O)[O-])c2)cc1,-51.6
19,CN(C)c1ccc(C(=S)N2CCOCC2)cc1Br,2.14
20,O=C(Nc1ccncc1)c1ccc(N2CCCC2=O)cc1,1.98
21,CCOC(=O)C1=C(C)N(CCCCCC(=O)O)C(=O)NC1c1ccccc1OS(=O)(=O)c1ccc(C)cc1 (stereo not drawn),-44.8
22,O=S(=O)(/N=C(/Nc1ccc(Cl)cc1Cl)c1ccccc1)c1cccs1,4.1
23,C/C(=C\CNc1ncnc2nc[nH]c12)CO,10.4
24,O=C(NN=C1CCN(Cc2ccccc2)CC1)c1cc2ccccc2cc1O,4.92
25,O=C(Nc1ccc2c(c1)OCO2)Nc1ccc(Cl)cc1Cl,9.53
26,CCOC(=O)N1CCN(CC(=O)Nc2nc3ccc(OC)cc3s2)CC1,-39.8
27,N#C/C(=C/c1ccncc1)c1nc2ccccc2s1,2.23

row,SMILES,"hERG current change (%, negative = inhibition) at 10uM [%]"
1,Cc1ccc(C(=O)COC(=O)C(C)N2C(=O)C3C4CCC(C4)C3C2=O)cc1C (stereo not drawn),-23
2,O=C(O)CCCn1cc(NC(=O)COc2ccccc2F)cn1,31.6
3,O=C(NCCc1ccccc1)C(=O)c1c(-c2ccccc2)cc2ccccn12,14.3
4,COc1ccccc1OCCn1cc(/C=N/NC(N)=S)c2ccccc21,4.42
5,O=C(O)/C=C\C(=O)Nc1ccc(N2CCN(c3ccc(Cl)cc3)CC2)cc1,28.2
6,CCCCn1c(N)c(N(CC(C)C)C(=O)CSCC(=O)Nc2ccc(C)cc2)c(=O)[nH]c1=O,16.6
7,COc1ccc(CCN(Cc2cccs2)S(=O)(=O)c2ccc(-n3cnnn3)c(OC)c2)cc1OC,10.4
8,CCn1cc(C(=O)N[C@@H](C)C(=O)OC)c(=O)c2cc3c(cc21)OCO3,-3.85
9,Cc1c(NC(=O)Cc2cccs2)cccc1[N+](=O)[O-],12.8
10,CC(=O)N=c1sc2nc3ccccc3nc2n1N(C(C)=O)C(C)=O,26.3
11,OCC1(Cc2ccccc2)CCN(Cc2cnc(-c3cccc4ccccc34)nc2)CC1,10.8
12,Cn1c(=O)c2c(nc(SCC(=O)O)n2Cc2cc3c(cc2Cl)OCO3)n(C)c1=O,6.88
13,CC(C)NC(=O)c1cc(-c2ccco2)nn1-c1ccc(Cl)cc1,-27.4
14,CCOCCCNC(=O)NC12CC3CC(CC(C3)C1)C2,13.5
15,COc1ccc(NC(=O)CC2CCCC2)cc1S(=O)(=O)N1CCCCC1,-35.8
16,O=C(CNC(=O)c1ccc([N+](=O)[O-])cc1)N/N=C/c1c[nH]c2ccccc12,4.16
17,CC(=O)Nc1cc2c3c(c1)CCC(=O)N3CCC2,20.3
18,COc1ccc(CC/C(C)=N\NC(N)=O)cc1,14.2
19,CCCC(=O)Nc1nc(-c2ccccc2)c(CC)s1,0.584
20,COc1ccc(S(=O)(=O)c2c(C)c(NS(=O)(=O)c3ccccc3)cc(C)c2O)cc1,11.1
21,Cc1ccc([C@@H]2[C@@H]3C(=O)N(C)C(=O)[C@@H]3[C@]3(Cc4ccccc4)C(=O)N(Cc4ccccn4)CC(=O)N23)o1,16.8
22,CN1CCN(S(=O)(=O)c2cccc(C(=O)Nc3ccccc3N3CCOCC3)c2)CC1,1.78
23,COc1ccc(S(=O)(=O)N2CCOCC2)cc1OC,0.287
24,O=C(OCc1ccc2c(c1)OCO2)c1ccc(S(=O)(=O)N2CCCC2)cc1,-12.7
25,CCC(=O)N1c2ccc(S(=O)(=O)N3CCN(C)CC3)cc2CC1C (stereo not drawn),7.54
26,Cc1ccc(/C=C2\SC(=S)N(CC(=O)Nc3cccnc3)C2=O)cc1,19.4
27,O=C1NC(c2cccc(Cl)c2)Oc2ccccc21 (stereo not drawn),15.8
